In PubChem BioAssay AID720708 (National Center for Advancing Translational Sciences (NCATS), 2013):
About 660 (0.18%) of roughly 360,000 compounds were called active. This list was built around the results that the source calls inconclusive (neither active nor inactive); the mix of calls is not that of the screen. Calls come from the whole dose curve; as a rule, active = well fitted inhibition curve with a large enough effect; inconclusive = small, poorly fitted or top-dose-only effect; inactive = no such curve, though single readings can be large or run the other way. No potency is given beside an inconclusive call; the fits are too rough.

molecular target: Rap guanine nucleotide exchange factor 4 (Homo sapiens) (UniProt Q8WZA2); assay: qHTS for Antagonist of cAMP-regulated guanine nucleotide exchange factor 2 (EPAC2): primary screen; conditions: EPAC2 GEF exchange of Rap1B-BODIPY-GDP, fluorescence; activity, negative = inhibition: at 114 µM (top of the series) unless noted; note: nearly all actives have a fitted effect of over 45% in size
Sequence of UniProt Q8WZA2 (Q8WZA2 whole entry, looked up): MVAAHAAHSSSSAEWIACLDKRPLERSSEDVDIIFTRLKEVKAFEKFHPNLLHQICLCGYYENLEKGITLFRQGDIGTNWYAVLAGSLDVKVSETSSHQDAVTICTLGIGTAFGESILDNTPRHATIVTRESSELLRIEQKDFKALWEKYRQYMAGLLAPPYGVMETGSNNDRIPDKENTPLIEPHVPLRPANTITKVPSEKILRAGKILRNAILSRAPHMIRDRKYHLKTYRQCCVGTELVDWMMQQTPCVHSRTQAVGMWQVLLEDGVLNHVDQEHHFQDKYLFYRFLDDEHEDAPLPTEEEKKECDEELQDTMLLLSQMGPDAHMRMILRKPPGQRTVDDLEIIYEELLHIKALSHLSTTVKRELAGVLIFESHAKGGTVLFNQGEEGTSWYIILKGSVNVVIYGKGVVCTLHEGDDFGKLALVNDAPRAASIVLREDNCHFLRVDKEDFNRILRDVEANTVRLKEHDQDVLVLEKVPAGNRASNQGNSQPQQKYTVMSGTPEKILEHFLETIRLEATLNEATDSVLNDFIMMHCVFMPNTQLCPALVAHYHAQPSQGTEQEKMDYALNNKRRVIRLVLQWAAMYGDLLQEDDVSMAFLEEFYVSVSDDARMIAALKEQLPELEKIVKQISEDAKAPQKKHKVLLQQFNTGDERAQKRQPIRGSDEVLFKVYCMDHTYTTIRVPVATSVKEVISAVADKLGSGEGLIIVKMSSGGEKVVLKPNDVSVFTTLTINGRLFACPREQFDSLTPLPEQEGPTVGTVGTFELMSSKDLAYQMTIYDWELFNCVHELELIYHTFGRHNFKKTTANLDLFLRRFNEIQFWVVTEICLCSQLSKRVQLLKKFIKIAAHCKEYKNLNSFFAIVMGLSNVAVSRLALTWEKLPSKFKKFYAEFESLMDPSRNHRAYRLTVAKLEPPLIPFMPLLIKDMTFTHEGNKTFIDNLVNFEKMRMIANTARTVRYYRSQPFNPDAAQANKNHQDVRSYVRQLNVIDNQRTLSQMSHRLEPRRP
% is set by controls: 0 for no effect and ±100 for the full control effect; potency is the fitted concentration of half-maximal effect; tags give direction and shape of the fitted curve.

Question: With `C=CCOC(=O)C1=C(C)OC(N)=C(C#N)C1c1ccco1` (stereo not given) as the compound, how does the Potency read?
Answer: inconclusive [inhibitor, partial curve]

Question: Which Potency does the source give for `CCCc1c(-c2cccc(F)c2)ncn1Cc1ccccc1OC` here?
Answer: inconclusive [inhibitor, partial curve, poor fit]

Question: How did the Potency turn out when `COc1cccc(C2c3c(-c4ccccc4O)n[nH]c3C(=O)N2Cc2ccco2)c1` (stereo not given) was run?
Answer: inconclusive [inhibitor, partial curve]

Question: For `CC1(C(=O)Nc2ccc3c(c2)OCCO3)CCC(=O)N1CC(F)(F)F` (stereo not given), which Potency is on record?
Answer: inconclusive [inhibitor, single point]

Question: For `COC(=O)c1ccc(/C=C2\SC(=S)N(CCCC(=O)NCCCN3CCOCC3)C2=O)cc1`, which “activity, negative = inhibition” value is on record?
Answer: inactive: 1.41%

Question: With `C[C@H](CO)N1C[C@H](C)[C@H](CN(C)Cc2cccc(O)c2)OCc2ccccc2-c2c(n(C)c3ccccc23)C1=O` as the compound, how does the Potency read?
Answer: inconclusive [inhibitor, full curve]

Question: `c1ccc2c(c1)CCN(c1nc3ccccc3n3cnnc13)C2` was tested. Which Potency did it give?
Answer: inconclusive [inhibitor, partial curve]

Question: Which Potency does the source give for `O=C1CSC(c2cccc(Cl)c2Cl)N1c1ccccn1` (stereo not given) here?
Answer: inconclusive [inhibitor, partial curve]

Question: With `COc1ccc(C(=O)NCC(c2ccco2)N2CCc3ccccc32)c(OC)c1` (stereo not given) as the compound, how does the Potency read?
Answer: inconclusive [inhibitor, partial curve]

Question: Which Potency does the source give for `COc1ccc(C)cc1CN1C(=O)c2ccccc2C1=O` here?
Answer: inconclusive [inhibitor, full curve]

Question: Which Potency does the source give for `O=C(CS(=O)(=O)c1ccccc1)c1cc2ccccc2oc1=O` here?
Answer: inconclusive [inhibitor, full curve]

Question: How did the Potency turn out when `C=CCOc1ccc(Br)cc1/C=C1/SC(=Nc2ccc(C(=O)O)cc2)NC1=O` was run?
Answer: inconclusive [inhibitor, partial curve]

Question: For `COc1ccc(NC(=S)NNC(=O)COc2ccc(Cl)cc2Cl)cc1`, which “activity, negative = inhibition” value is on record?
Answer: inactive: -17.1%

Question: How did the Potency turn out when `COn1c2c(c3c4nonc4ccc31)CCCC2` was run?
Answer: inconclusive [inhibitor, single point]

Question: For `COc1cc(CNc2nc3c(C)cc(C)cc3s2)ccc1O`, which Potency is on record?
Answer: inconclusive [inhibitor, partial curve]

Question: Which “activity, negative = inhibition” value does the source give for `Cc1coc2c1C(=O)C(=O)c1c-2ccc2c(C)cccc12` here?
Answer: inactive: 3.7%

Question: For `COc1ccc(S(=O)(=O)NC2CC3CCC2C3)cc1Br` (stereo not given), which Potency is on record?
Answer: inconclusive [inhibitor, partial curve]

Question: For `Cc1ccc(C(C)C)c(OCC(O)CN2CCc3ccccc3C2)c1` (stereo not given), which “activity, negative = inhibition” value is on record?
Answer: inactive: -20.5%

Question: Which “activity, negative = inhibition” value does the source give for `COc1ccc(S(=O)(=O)NC(CCSC)C(=O)NC2CCCCC2)cc1` (stereo not given) here?
Answer: inactive: 1.53%

Question: For `O=C(CN1c2cccc3cccc(c23)S1(=O)=O)Nc1ccccc1Br`, which Potency is on record?
Answer: inconclusive [inhibitor, full curve, poor fit]

Question: How did the Potency turn out when `C[C@@]12CCC=C[C@H]1[C@H](c1ccccc1Br)N(Cc1ccccc1)C2=O` was run?
Answer: inconclusive [inhibitor, partial curve]

Question: Which Potency does the source give for `O=C(c1ccc(Cl)cc1Cl)N1CCc2ccccc21` here?
Answer: inconclusive [inhibitor, partial curve]

Question: Which “activity, negative = inhibition” value does the source give for `COc1cccc2c1C(=O)C=C(C)C2=O` here?
Answer: inactive: 7.45%

Question: For `O=C(Cc1ccccc1)N(c1ccccc1)c1ccccc1`, which Potency is on record?
Answer: inconclusive [inhibitor, partial curve]

Question: With `CCOC(=O)c1c(-c2ccccc2)csc1NC(=O)CSc1ccccc1` as the compound, how does the “activity, negative = inhibition” value read?
Answer: inactive: 3.81%

Question: `COc1cccc(C2C3CN(C)CC=C3C(C#N)=C(N)C2(C#N)C#N)c1OC` (stereo not given) was tested. Which “activity, negative = inhibition” value did it give?
Answer: inactive: -19.5%

Question: With `C(=C\c1ccc2ccccc2n1)/c1ccccc1` as the compound, how does the “activity, negative = inhibition” value read?
Answer: inactive: -8.37%

Question: Which Potency does the source give for `COc1ccc(CN(CC2CCCO2)C(=O)c2cc3sccc3n2C)c(OC)c1` (stereo not given) here?
Answer: inconclusive [inhibitor, partial curve]

Question: How did the “activity, negative = inhibition” value turn out when `Cc1ccc(S(=O)(=O)N2CCN(C(=O)CSc3nc(N)cc(=O)[nH]3)CC2)c(C)c1` was run?
Answer: inactive: -4.74%

Question: With `COc1cc(/C=C2/C(=O)NN(c3cccc(C)c3)C2=O)ccc1OC(=O)c1ccco1` as the compound, how does the “activity, negative = inhibition” value read?
Answer: inactive: 18.6%

Question: Which “activity, negative = inhibition” value does the source give for `CCOC(=O)c1c(N)nn(C(C)=O)c1-c1ccccc1` here?
Answer: inactive: -0.278%

Question: Which “activity, negative = inhibition” value does the source give for `CCOc1ccc(C(=O)Nc2ccccc2N2CCN(C(=O)c3ccccc3)CC2)cc1[N+](=O)[O-]` here?
Answer: inactive: 0.609%

Question: With `COc1ccc(Cl)cc1C(=O)Nc1cccc(-c2ccc3nncn3n2)c1` as the compound, how does the Potency read?
Answer: inconclusive [inhibitor, partial curve]

Question: How did the Potency turn out when `COc1ccccc1N(CC(=O)Nc1ccc(Br)cc1F)S(=O)(=O)c1cccs1` was run?
Answer: inconclusive [inhibitor, full curve]

Question: With `N#Cc1c(-c2ccccc2)nc(SCc2ccc(Cl)cc2)[nH]c1=O` as the compound, how does the Potency read?
Answer: inconclusive [inhibitor, partial curve]

Question: `Cn1c(N)c(C(=O)COC(=O)/C=C/c2cccc(Cl)c2)c(=O)n(C)c1=O` was tested. Which “activity, negative = inhibition” value did it give?
Answer: inactive: 6.29%

Question: How did the Potency turn out when `C[C@H](NC(=O)c1nc[nH]c1C(=O)N[C@@H](C)C(=O)OCc1ccccc1)C(=O)OCc1ccccc1` was run?
Answer: inconclusive [inhibitor, full curve, poor fit]

Question: Which “activity, negative = inhibition” value does the source give for `Cn1cnnc1SCC(=O)NNC(=O)c1ccc([N+](=O)[O-])cc1` here?
Answer: inactive: -8.2%

Question: For `Cc1ccc(NC(=O)CN2C(=O)N/C(=C/c3ccccc3OCc3cccc(C(=O)O)c3)C2=O)cc1`, which Potency is on record?
Answer: inconclusive [inhibitor, single point]

Question: Which Potency does the source give for `O=C1OC(c2cccc3c(F)cccc23)c2ccccc21` (stereo not given) here?
Answer: inconclusive [inhibitor, full curve]

Question: For `Cc1ccc(C2C(C#N)=C(N)N(c3cccnc3)C3=C2C(=O)CCC3)c(C)c1` (stereo not given), which Potency is on record?
Answer: inconclusive [inhibitor, partial curve]

Question: How did the “activity, negative = inhibition” value turn out when `Cc1nc2[nH]c(=S)n(C)c(=O)c2nc1C` was run?
Answer: inactive: 2.69%

Question: Which Potency does the source give for `O=C(CSc1nc2ccccc2n1Cc1ccc(Cl)cc1)N/N=C/c1ccc(C(=O)O)cc1` here?
Answer: inconclusive [inhibitor, partial curve]

Question: For `COc1cc(/C=N/NC(=O)c2ccncc2)ccc1OC(=O)c1cccc(Br)c1`, which Potency is on record?
Answer: inconclusive [inhibitor, full curve, poor fit]

Question: `CCCc1nn(-c2cc(Cl)ccc2OC)c2c1C(=O)CC(C)(C)C2` was tested. Which Potency did it give?
Answer: inconclusive [inhibitor, partial curve]
